US12551573B2, “Compositions and methods for the targeting of PCSK9” (Scribe Therapeutics Inc., priority 2022, dated 2026)

B1: DOMAIN_2380 (protein, listed as Pongo sp.)
chain: MIQAQESITLEDVAVDFTWEEWQLLGAAQKDLYRDVMLENYSNLVAVGYQASKPDALFKLEQGEQPWTTEDGIHSGACSDM
B2: DOMAIN_5096 (protein, listed as Callithrix sp.)
chain: MTMLQDSFSFDDLSVDFTQKEWQLLDPSQKNLYKDVMLENYSSLVSLGYEAMKPDVIFKLEQGEEPWIGDEEIPSSWSPDI
B3: DOMAIN_5103 (protein, listed as Callithrix sp.)
chain: IREFGGMGAGIANIWSFQGSVTFRDVAIDFSQEEWKWLQPAQRDLYRCVMLENYGHLVSLGLSISKPDVVSLLEQGKEPWL
B4: DOMAIN_5201 (protein, listed as Aotus trivirgatus)
chain: MHLTAWPQKSVTFEDVAVYFTQAEWDGLSPAQRTLYRDVMLENYGNVASLGFPLLKPAVISQLEGGGELGGPSPLAAGTGL
B5: DOMAIN_5217 (protein, listed as Aotus trivirgatus)
chain: MAHMAFRDVAVDFTQDEWRLLSPAQRTLYREVMLENYSNLVSLGISFSKPEIITQLEQGKETWREEKKCPPATCPADPEPE
B6: DOMAIN_5235 (protein, listed as Aotus trivirgatus)
chain: MNMEGLVMFQDLSIDFSQEEWECLNPTQKDLYRDVMMENYSSLLSLGLSIPKPDVISLLEQGKEPWMVSRDVLGGWCPDRL
B7: DOMAIN_5246 (protein, listed as Aotus trivirgatus)
chain: MAQESVMFSDVSIDFSQEEWECLNDDQRDLYRDVMLENYSNLVSMAGHSISKPNVISYLEQGKEPWLVDRELTRGQWPALE
B8: DOMAIN_2942 (protein, listed as Hylobates sp.)
chain: MDSVAFEDVAVNFTQEEWALLDPSQKNLYREVMQETVRNLASIGKKWNNQYIEDEHQNPRKNLRRLIGERLSESKESHQHG
B9: DOMAIN_5248 (protein, listed as Aotus trivirgatus)
chain: MAHRSVMFSDISIDFSPEEWEYLDLEQKDLYRDVMLENYSNLVSLGCFISKPDVISLLEQGKEPWKVVRKRRRQYPDLETK
B10: DOMAIN_5273 (protein, listed as Aotus trivirgatus)
chain: MINYQTPVSFKDVVVGFTQEEWHRLNPTQRALYRDVMLETYSNLVSVGYEGTKPDVILRLEQEEAPWIGEAACLGCHCWED
B11: DOMAIN_5299 (protein, listed as Aotus trivirgatus)
chain: GRSPRKTDQFCNSKNMVPGSVTFRDVAIDFSQEEWECLQPAQRTLYRDVMLENYSHLISLGSSISKPDVITLLEQEKEPWM
B12: DOMAIN_5337 (protein, listed as Aotus trivirgatus)
chain: CGMFQVSVAFEDVAVTFTQEEWALLDPSQKTLYRDVMQENFRNLASVGKKWKAQNIYVEYKNLRRNLRNLRGKRLFESKED
B13: DOMAIN_5370 (protein, listed as Aotus trivirgatus)
chain: TMTTVSSTARPQESVAFDDVAVYFTKKEWAIMVPDQRALYRDVMLENYEAVAFVVPPTSKPALVSHLEQGKEPCFTQPQGV
B14: DOMAIN_5485 (protein, listed as Aotus trivirgatus)
chain: REPAQVLVAAESLIDNEEGYVTFEDVAVYFSQEEWRLLDEAQRLLYRNVMLENFSLMASLGLASSKTHEITQLESWEEPFV
B15: DOMAIN_5489 (protein, listed as Aotus trivirgatus)
chain: MAAAALREPAQGYVTFEDVAVYFSQEEWRLLDEAQRLLYRNVMLENFSLMASLGLASSKTHEITQLESWEEPFVPAWDVMT

System: HBEGF locus
Format: cell-based, human
Details: high-throughput screen of dXR repression of the HBEGF gene; change in abundance of each domain in the library before and after diphtheria toxin selection

Row | Molecule | Log2 (fold change)
1 | B1 | 3.2024
2 | B2 | 2.456
3 | B3 | 2.1016
4 | B4 | 3.3658
5 | B5 | 2.4689
6 | B6 | 3.437
7 | B7 | 2.7473
8 | B8 | 3.3658
9 | B9 | 4.1052
10 | B10 | 2.4023
11 | B11 | 2.7399
12 | B12 | 3.7616
13 | B13 | 3.0452
14 | B14 | 2.7826
15 | B15 | 2.6774
